Reference: PubChem BioAssay AID1963868 (Molecular Pharmacology Branch, DTP, NCI, 2024)
The source holds more than one record for some entries. They are shown here; other results are not. An entry can have further records. Results that share an entry are repeats in other runs, samples, wells, individuals or studies. Additions like (4×) give the number of equal values in this list.

Test system: KRAS PDC tumor spheroids (HUVEC+MSC), viability
Assay: Anticancer human tumor 254851-301-R-J1-PDC patient-derived colon carcinoma cell line growth inhibition [KRAS2]
Conditions: for viability, T/C: stronger effect = lower value; for IC50: compound alone
Excerpt: Multicellular complex tumor spheroid response to RAS pathway inhibitors in combination with a targeted agents in patient-derived cell lines with oncogenic KRAS variants from multiple cancer types
A high-throughput screen of multi-cell type tumor spheroids was designed to identify active combinations of targeted small molecules and KRAS pathway inhibitors. Complex spheroids include a stromal component modeled by human endothelial cells (HUVEC) and fibroblasts modeled by human mesenchymal stem cells (MSCs). The concentration ranges selected for each drug and investigational agent were based upon clinically achievable concentrations if the clinical Cmax of the agent was known.
Compounds. The drugs and investigational agents: BI-3406 (NSC825286), BAY-293 (NSC824723), batoprotafib (TNO155; NSC825523), sotorasib (AMG 510; NSC818433), MRTX1257 (NSC819558), elimusertib (BAY 1895344; NSC800525), molibresib (GSK525762; NSC774829), temuterkib (LY3214996; NSC803410), venetoclax (NSC766270), alisertib (NSC759677), olaparib (NSC753686), talazoparib (NSC767125), erdafitinib (NSC781556), ipatasertib (NSC767898), cabozantinib (NSC761068), nintedanib (NSC756659), abemaciclib (NSC768073), docetaxel (NSC628503), trametinib (NSC758246), and sapanisertib (NSC764658) were obtained from the National Cancer Institute (NCI) Developmental Therapeutics Program Chemical Repository. The FDA-approved anticancer drug set is available from the Developmental Therapeutics Program. […] The stock solutions were prepared in dimethyl sulfoxide (DMSO, Sigma-Aldrich, St. Louis, MO, cat. D2650) at 800-fold the tested concentration and stored at -70 degrees C prior to their use. All drugs and investigational agents were tested over a range starting from a high concentration at or near the clinical Cmax and decreasing in half-log increments. If the clinical Cmax for an agent had not been determined, the highest concentration tested was 10 microM.
Cell Culture. All cells were maintained in an incubator at 37 degrees C and 5% CO2 with 95% humidity. The PDC lines were cultured according to standard operating procedures established by the NCI PDMR (https://pdmr.cancer.gov/sops/default.htm). Briefly, all PDCs were thawed and cultured in Matrigel-coated flasks prepared with a working solution of 1X Ham's F-12 nutrient mix, without supplementation (Invitrogen, Waltham, MA, cat. 11765054), 100 U/mL penicillin-streptomycin (Invitrogen, cat. 15140122), and 2.5% Matrigel (Corning Inc., Corning, NY, cat. 354248) for the first three passages. All PDCs were cultured in complete DMEM/F-12 media containing advanced DMEM/F-12 (Invitrogen, cat. 12634028), 4.9% defined fetal bovine serum, heat inactivated (HyClone Laboratories Inc., Logan, UT, cat. SH30070.03HI), 389 ng/mL hydrocortisone (Sigma-Aldrich, cat. H4001), 9.7 ng/mL human EGF recombinant protein (Invitrogen, cat. PHG0313), 23.4 microg/mL adenine (Sigma-Aldrich, cat. A2786), 97.3 U/mL penicillin-streptomycin (Invitrogen, cat. 15140122), 1.9 mM L-glutamine (Invitrogen, cat. 25030081), and 9.7 microM Y-27632 dihydrochloride (Tocris Bioscience, Bristol, United Kingdom, cat. 1254). The PDCs were cultured in complete DMEM/F12 media without 9.7 microM Y-27632 dihydrochloride for at least two passages prior to the screen. The established cell line HOP-62 was cultured in RPMI 1640 medium, HEPES (Invitrogen, cat. 22400105) with 10% defined fetal bovine serum (HyClone Laboratories Inc., cat. SH30070.03) and 2 mM L-glutamine (Invitrogen, cat. 25030081). The pooled donor HUVEC were cultured in endothelial cell growth medium 2 (PromoCell, Heidelberg, Germany, cat. C-22011) and the hMSC were cultured in mesenchymal stem cell growth medium 2 (PromoCell, cat. C-28009). For all experiments, HUVEC and hMSC were used at passages </=5, while the malignant cell lines were used at passages </=15. […]
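Further: spheroids exposed to compounds for seven days before readout.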
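Wherever viability, T/C is given: 100% = DMSO vehicle control luminescence of the spheroids.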

Row | SMILES | viability, T/C (compound alone 1 µM) | viability, T/C (compound alone 3.16 µM) | IC50 | viability, T/C (compound alone 0.0316 µM) | viability, T/C (compound alone 0.1 µM) | viability, T/C (compound alone 0.316 µM) | viability, T/C (compound alone 10 µM)
1 | CNCc1ccccc1-c1csc(C(C)Nc2nc(C)nc3cc(OC)c(OC)cc23)c1 (centres undefined) | 81.4, 84, 97.9, 94.8, 99.4, 100, 110, 105, 96.3, 91.2, 95.1, 88.4, 92.1, 99.5, 102, 90.2, 93.8% | 88.7, 94.5, 76.8, 68.7, 76, 70.6, 84.1, 69.3, 79.3, 73.6, 67.8, 35.6, 48, 30.9, 42.4, 32.8, 36.7% | – | – | – | – | –
2 | CC1COCCN1c1cc(-c2ccnn2C)c2ccnc(-c3ccn[nH]3)c2n1 (centres undefined) | – | – | 286, 364, 405, 104, 285 nM | 90.5, 95.1, 100, 55.1, 91% | 65.2, 67.1, 72.1, 40.4, 63.8% | – | –
3 | CC(C)NCC(C(=O)N1CCN(c2ncnc3c2C(C)CC3O)CC1)c1ccc(Cl)cc1 (centres undefined) | – | 110, 104, 95.7, 42.6, 106% | – | – | – | – | –
4 | C=CC(=O)N1CCN(c2nc(=O)n(-c3c(C)ccnc3C(C)C)c3nc(-c4c(O)cccc4F)c(F)cc23)C(C)C1 (centres undefined) | 94.5, 111, 105, 85.8, 99.4, 106 (2×), 103, 100, 95.2 (2×), 95.7, 101, 82.7, 115, 83.4, 88.1% | 96.8, 114, 102 (2×), 91.9, 103 (2×), 108, 106, 112, 98.6, 94.6, 89.2, 104, 72.6, 74.1, 67.3% | – | – | – | 101 (2×), 103, 91.9, 94.9, 76.8, 109, 107, 108 (2×), 94.5, 86.7, 114, 98.9, 104, 97.2, 91.8% | 93.3, 97.4, 104, 91.3, 110, 109 (2×), 115, 108, 105 (2×), 100, 93.2, 92.7, 99.2, 80, 71.5%
5 | COc1cc2nc(C)nc(NC(C)c3cc(N)cc(C(F)(F)F)c3)c2cc1OC1CCOC1 (centres undefined) | – | 93.5, 87.4, 87.3, 101, 91.2, 89.6, 92.4, 85.8, 88.2, 89.8, 84.5, 54.1, 71.3, 76.5, 65.8, 81.7, 82.6% | – | – | 105 (2×), 108 (2×), 97.7, 92.6, 106, 104 (2×), 113, 95.5, 94.7, 91.1, 89.3, 82, 64.3, 85.3% | 87.7, 94, 92.5, 88.5, 107, 94.8, 104, 98.2, 82.4, 91.1, 96.8, 96.3, 102, 81, 112, 99.3, 97.8% | 83.5, 82.7, 100, 73.7, 81.4, 79.1 (2×), 68.1, 82.8, 80.6, 71.9, 78.8, 84.9, 88.3, 96.3, 79.7, 73.1%
6 | COc1cc2nccc(Oc3ccc(NC(=O)C4(C(=O)Nc5ccc(F)cc5)CC4)cc3)c2cc1OC | – | 106, 104, 100, 53.3, 101% | – | – | – | – | 70.1, 67.5, 57, 92, 56.5%
7 | CC1OCC2(CCN(c3cnc(Sc4ccnc(N)c4Cl)c(N)n3)CC2)C1N (centres undefined) | – | 63, 71.1, 71.7, 66.6, 63.3, 72.2, 79.8, 73.5, 68.6, 71.2, 68.9, 76.8, 77.7, 80, 47, 68.3, 52.8, 67.2, 66.4, 76.6% | – | – | – | 80.8, 97.4 (2×), 94.9 (2×), 95.9, 103, 107, 90.6, 96.7, 91.9, 73.8, 95.4, 91.3, 86.7, 104, 88.7, 96.4, 95.3% | 64.1, 72.9, 70.5, 65.3 (2×), 71, 73.6, 69.1, 58.1, 63.6, 62.8, 58.4, 67.9, 69.4, 73.2, 65, 35.2, 72.1, 76.1, 76.8%
8 | CCNC(=O)CC1N=C(c2ccc(Cl)cc2)c2cc(OC)ccc2-n2c(C)nnc21 (centres undefined) | – | 83.6, 84.4, 98.7, 66.8, 92.6% | – | – | – | – | 67.6, 74.7, 73.2, 29.8, 76%
9 | COc1cc(OC)cc(N(CCNC(C)C)c2ccc3ncc(-c4cnn(C)c4)nc3c2)c1 | 78, 88, 110, 10.5, 108% | 72.6, 76.5, 67.4, 35.1, 76.3% | 6.12 µM, 6.52 µM, 6.44 µM, 630 nM, 6.98 µM | – | – | – | 35.3, 35.6, 39.2, 0.19, 38.1%
10 | CCN1CCN(Cc2ccc(Nc3ncc(F)c(-c4cc(F)c5nc(C)n(C(C)C)c5c4)n3)nc2)CC1 | – | – | 707 nM, 646 nM, > 1 µM, 771 nM, 703 nM | – | – | – | –
11 | C=CC(=O)N1CCN(c2nc(OCC3CCCN3C)nc3c2CCN(c2cccc4cccc(C)c24)C3)CC1CC#N (centres undefined) | 95, 103, 90.5, 87.9, 95.7, 96, 101, 102, 94.6, 92.4, 89.5, 61.2, 66, 72.6, 68, 70.9, 73.1% | 100, 69.1, 63.5, 71.3, 64, 64.3, 66.5, 54.4, 51.4, 68, 60.6, 59.7, 60.7, 68.4, 55, 62% (2×) | – | – | – | 97.6, 89.8, 109 (2×), 90.6, 97.4, 102, 100, 83.7, 98.5, 103 (2×), 82.6, 90.5, 94.7, 97.3, 86% | –
